From PubChem BioAssay (NCATS)
This list was built around the results that the source calls inconclusive (neither active nor inactive); the mix of calls is not that of the screen. For some assays here: Potencies of inconclusive entries are left out as doubtful fits. Activity calls are given as the source filed them. The call rests on the fitted dose curve; in most records, active means well fitted curve in the direction sought with a large enough effect; inconclusive means small, poorly fitted or top-dose-only effect, or another doubt; inactive means no such curve, though single readings can be large; an effect the other way counts as inactive or inconclusive.

Legend:
[1] = molecular target: Aldehyde dehydrogenase, mitochondrial (Homo sapiens) (UniProt P05091); assay: qHTS for Inhibitors of the Aldehyde Dehydrogenase Family (ALDH2) Primary screen (AID 2061308); conditions: ALDH2 enzyme inhibition qHTS, 1536-well; series mostly up to 56 µM; further: nearly all actives have a fitted effect of over 55% in size; further: potency means the concentration at half of the fitted maximal effect;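 on activity change, negative = inhibition: plate controls were vehicle for no effect and reference inhibitor for full effect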
[2] = molecular target: Retinaldehyde dehydrogenase 3 (Homo sapiens) (UniProt P47895); assay: qHTS for Inhibitors of the Aldehyde Dehydrogenase Family (ALDH1A3) Primary screen (AID 2061315); conditions: ALDH inhibition qHTS; activity change, negative = inhibition: at 56 µM (top of the series) unless noted; further: potency means the concentration at half of the fitted maximal effect
[3] = BET inhibitor-based combinations targeting novel dependencies in MECOM-rearranged (r) AML: SET-2 cell line (AID 2202231); conditions: SET-2 AML cells viability, CellTiter-Glo luminescence, 48 h; viability: active compounds read low, concentration not given here; further: nearly all actives have a fitted effect of over 35% in size; further: potency means the concentration at half of the fitted maximal effect;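 on viability: plate controls were DMSO treated cells for no effect and wells without cells for full effect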
Outline: (§1)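 500 cells/well; 11-pt dose curve; 48 h, standard incubator; CellTiter-Glo luminescence after 15 min RT; DMSO/empty-well normalization; AUC plus Z-AUC (mean-centered within each line).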

[4] = BET inhibitor-based combinations targeting novel dependencies in MECOM-rearranged (r) AML: OCI-AML3 cell line (AID 2202232); conditions: CellTiter-Glo luminescence, 48 h; Potency: OCI-AML3 viability; viability (% of control): at 46 µM (top of the series); further: potency means the concentration at half of the fitted maximal effect; nearly all actives have a fitted effect of over 35% in size
Outline: as §1

[5] = BET inhibitor-based combinations targeting novel dependencies in MECOM-rearranged (r) AML: MV-4-11 cell line (AID 2202233); conditions: MV-4-11 AML viability, CellTiter-Glo luminescence, 48 h; viability, % of control: at 46 µM (top of the series) unless noted; further: potency means the concentration at half of the fitted maximal effect; nearly all actives have a fitted effect of over 45% in size
Outline: (§2)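 Cells were plated at 500 per well and exposed to each drug across an 11-point dose range for 48 hr at standard incubator conditions. Viability was read by CellTiter-Glo luminescence, and activity was expressed as AUC and per-cell-line Z-transformed AUC.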

[6] = BET inhibitor-based combinations targeting novel dependencies in MECOM-rearranged (r) AML: HNT-34 cell line (AID 2202234); conditions: HNT-34 AML viability, CellTiter-Glo luminescence, 48 h; series mostly up to 46 µM;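 further: plate controls were vehicle wells for no effect and cell-free wells for full effect; nearly all actives have a fitted effect of over 35% in size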
Outline: as §2

[7] = BET inhibitor-based combinations targeting novel dependencies in MECOM-rearranged (r) AML: UCSD-AML1 cell line (AID 2202235); conditions: UCSD-AML1 AML cells viability, CellTiter-Glo, 48 h; viability (% of control): at 46 µM (top of the series); further: potency means the concentration at half of the fitted maximal effect; nearly all actives have a fitted effect of over 40% in size
Outline: as §2

[8] = BET inhibitor-based combinations targeting novel dependencies in MECOM-rearranged (r) AML: AML-191 cell line (AID 2202236; further: nearly all actives have a fitted effect of over 35% in size; further: potency means the concentration at half of the fitted maximal effect;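 on viability (% of control): plate controls were vehicle wells for no effect and wells without cells for full effect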); conditions: AML-191 viability, CellTiter-Glo luminescence, 48 h; series mostly up to 46 µM
Outline: as §1
Tags describe the fitted curve by direction and shape.

Which results are given for `COC(=O)c1ccc(O)c2ncc(N3CC[C@@H](N)C3)cc12`?
Potency [1]: inconclusive [inhibitor, partial curve, poor fit]; Potency [2]: inconclusive [inhibitor, single point]

Which results are given for `Clc1ccc(Nc2nnc(Cc3ccncc3)c3ccccc23)cc1`?
Potency [1]: inactive; viability [3]: inactive: 91.3%; Potency [4]: inconclusive [inhibitor, partial curve, poor fit]; Potency [5]: inconclusive [inhibitor, partial curve, poor fit]; Potency [6]: inactive; Potency [7]: inconclusive [inhibitor, partial curve, poor fit]

Which results are given for `CN(Cc1ccccc1)C(=O)c1ccc(S(=O)(=O)Nc2ccccc2)cc1`?
Potency [1]: inconclusive [inhibitor, full curve, poor fit]; viability [3]: inactive: 103%; Potency [5]: inconclusive [inhibitor, partial curve, poor fit]; Potency [8]: inactive

With `CCC(=O)NC(c1cccs1)c1cc(Cl)c2ccccc2c1O` (stereo not given) as the molecule, how does the Potency [1] read?
The Potency was inconclusive [inhibitor, full curve, poor fit].

What about the Potency [2] of the same molecule?
Its Potency is inconclusive [inhibitor, full curve].

What does the source list for `O=C(O[C@H]1[C@@H]2C=CO[C@@H](O[C@@H]3O[C@H](CO)[C@@H](O)[C@H](O)[C@H]3O)[C@@H]2[C@@]2(CO)O[C@@H]12)c1ccc(O)c(O)c1`?
Potency [1]: inactive; Potency [2]: inconclusive [inhibitor, full curve]

With `CC(O)c1cc(C(=O)N[C@@H](C)Cn2ccc(-c3ccc(C#N)c(Cl)c3)n2)n[nH]1` (stereo not given in full) as the molecule, how does the Potency [1] read?
Its Potency is “inactive”.

What about the Potency [3] of the same molecule?
The Potency was inconclusive [inhibitor, single point].

And the Potency [4]?
The Potency was inconclusive [inhibitor, partial curve, poor fit].

And the Potency [8]?
The Potency was active: 16.6 µM.
